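Five compound concentrations were applied to cells in 96-well plates for 48 hours; endpoints were derived by simple linear interpolation of the resulting dose-response curve. GI50: concentration for 50% inhibition of growth.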 The source made the active and inactive calls. Rule as the data show it: active = GI50 up to about 1.1 µM and inactive = higher. Square brackets hold non-standard residues; d marks the D form. Peptide text beside a SMILES is read from it. * marks the point of attachment. Phe(4-NO2) = N[CH](Cc1ccc([N+](=O)[O-])cc1)C(=O)O; Boc = CC(C)(C)OC(=O)*
Test system: NCI-H322M
Assay: growth of human tumour cells (NCI), 48 h

| SMILES | GI50 |
| --- | --- |
| CCOP(=O)(OCC)C1(O)CC(n2cc(C)c(=O)[nH]c2=O)OC1CO (centres undefined) | inactive: > 100 µM |
| COC(=O)C(C)(C)/N=C/N(C)C | inactive: > 100 µM |
| NC(=S)N/N=C1\C(=O)C=C(Nc2ccc(Cl)cc2Cl)c2ccccc21 | inactive: 39.7 µM |
| O=C(C#Cc1ccccc1)C1=Cc2ccccc2OC1 | inactive: 14.1 µM |
| COc1cc2nc(-c3cccs3)oc(=O)c2cc1OC | inactive: > 100 µM |
| CC(C#N)NCc1ccc(C(C)NC(C)C#N)cc1 (centres undefined) | inactive: > 100 µM |
| Cc1cc2c3ccccc3n3c2c2c1OC1(C)CCC(C2C1)C3(C)C (centres undefined) | inactive: > 25 µM |
| CC1(C)Cc2ccccc2C(C)(Cl)C(=O)N1 (centres undefined) | inactive: > 10 µM |
| C=CCSC1=N/C(=C\c2ccc(C)cc2)C(=O)N1CC=C | inactive: 23.6 µM |
| CCOc1ccc(NCc2cc(OC)c(OC)c(OC)c2)cc1 | inactive: 4.39 µM |
| COc1cc2cc3c4c(cc(OC)c(OC)c4c2cc1OC)CCN3C(=O)CCC(=O)NCCCN(C)C | inactive: 77.6 µM |
| COc1ccc2c(c1)nc1n2C(c2c(F)cccc2F)SC1 (centres undefined) | inactive: > 100 µM |
| Cc1ccc(S(=O)(=O)NC(=O)NC(C(=O)O)C(C)C)cc1 (centres undefined) | inactive: > 100 µM |
| CS(=O)(=O)NC12CCC(c3ccccc31)c1ccccc12 | inactive: > 100 µM |
| COc1cccc(C23CCCC(C2)N(C)CC3OC(=O)c2ccccc2)c1OC (centres undefined) | inactive: 21 µM |
| CCOc1ccc(NC(=O)C(=O)CC(=O)c2sc(NNC(C)=O)nc2C)cc1 | inactive: > 100 µM |
| O=C(Cc1ccccc1)NN1C(=O)C(Cl)C1c1ccc(O)cc1 (centres undefined) | inactive: > 100 µM |
| N#Cc1nc(C#N)n(S(=O)(=O)c2ccccc2)c1NS(=O)(=O)c1ccccc1 | inactive: > 100 µM |
| O=C(OC1CCC(=C2SCCCS2)[C@H]1C1SCCCS1)c1ccccc1 (some centres undefined) | inactive: 97.7 µM |
| CCCCCCCCCC(=O)OCC1OC(n2cc(F)c(=O)[nH]c2=O)C(NC(=O)OCc2ccccc2)C(OC(=O)CCCCCCCCC)C1O (centres undefined) | inactive: 56.6 µM |
| O=c1[nH]c(=O)n([C@@H]2O[C@H](CO)[C@@H](O)[C@@H]2F)cc1I [FIALURIDINE] | inactive: > 100 µM |
| CN1C(NCCO)=NS(=O)(=O)c2ccccc21 | inactive: > 100 µM |
| COc1cccc(/C=N/[N-]C(=S)Nc2ccccc2)c1[O-].O.[Zn+2] | inactive: 51.4 µM |
| O=S(=O)(O)c1ccc(/N=N/c2ccc(/N=N/c3c(O)c(S(=O)(=O)O)cc4cc(S(=O)(=O)O)ccc34)cc2)cc1 | inactive: > 100 µM |

| SMILES | GI50 |
| --- | --- |
| COc1ccc2[nH]c(=O)cc(C)c2c1[N+](=O)[O-] | inactive: > 100 µM |
| COc1cc2cc(C(=O)N3CC(COS(C)(=O)=O)c4c3cc([N+](=O)[O-])c3ccccc43)[nH]c2c(OC)c1OC (centres undefined) | inactive: > 46.6 µM |
| O=C1CCC2(c3ccccc3)Nc3cc(Cl)ccc3N12 (centres undefined) | inactive: 23.3 µM |
| CC1CCCC(CC(=O)O)(CC(=O)O)C1 (centres undefined) | inactive: > 100 µM |
| Cc1cc(C)c(/C=C2\C(=O)Nc3ccccc32)[nH]1 [SEMAXANIB] | inactive: > 100 µM |
| CC1=NN(c2cccc(Cl)c2)C2(SCC(=O)N2c2nc3ccccc3s2)C1=CC=Cc1ccccc1 (centres undefined) | inactive: 33.7 µM |
| O=C(O)CC[C@H](NC(=O)c1ccc(-n2nc3ccc(=O)cc-3[nH]c2=O)cc1)C(=O)O | inactive: > 100 µM |
| COc1cc(NS(C)(=O)=O)ccc1Nc1c2ccccc2nc2c1[nH]c1ccc(NC3OC(CO)C(O)C(O)C3O)cc12 (centres undefined) | active: 0.424 µM |
| O=C1/C(=N\O)C2CCC1C2 (centres undefined) | inactive: > 100 µM |
| COC[C@@H](/N=C/N1CCc2cc(OC)c(OC)cc2C1)C(C)(C)C | inactive: > 100 µM |
| CCCCCCCCCCCCCCCCCC(=O)Nc1ccn(C2OC(CO)C(O)C2O)c(=O)n1 (centres undefined) | inactive: 38.3 µM |
| OC12C3C4CC5C(C4[C@@H]1Br)C2[C@@](O)(c1c(F)c(F)c(F)c(F)c1F)C53 (some centres undefined) | inactive: 62.1 µM |
| C/C(CCn1[nH]c(=O)ccc1=O)=N\NC(=O)C(=O)NN | inactive: > 100 µM |
| O=C(O)C1(C(=O)O)CC1(C(=O)O)C(=O)O | inactive: > 100 µM |
| COc1ccc2c(c1)Cc1c(NCCN(C)C)ccc(C(=O)NCCCN(C)CCCNC(=O)c3ccc(NCCN(C)C)c4c3Nc3ccc(OC)cc3C4)c1N2 | active: < 0.01 µM |
| COC(=O)CCC(NC(=O)OC(C)(C)C)C(=O)NC(Cc1ccc([N+](=O)[O-])cc1)C(=O)NC(CCC(=O)OC)C(=O)OC (centres undefined) (Boc-Glu(OMe)-[Phe(4-NO2)]-Glu(OMe)-OMe; configuration not given here) | inactive: > 100 µM |
| CCCCCCCCC(=O)NCCCNCCCNC(=O)CCCCCCCC | inactive: 9.46 µM |
| Cc1ccc(/C=C/C(=N/NC(=O)N/N=C(/C=C/c2ccc(C)cc2)C(C)(C)CN2CCCCC2)C(C)(C)CN2CCCCC2)cc1 | inactive: 1.95 µM |
| Cc1cccc2c(O)cc(=O)oc12 | inactive: > 100 µM |
| c1ccc(C2=NN(c3ccccc3)C3(S2)SC(c2ccccc2)(c2ccccc2)c2ccccc23)cc1 (centres undefined) | inactive: > 100 µM |
| Cn1cnc2c(sc3nc4ccccc4n32)c1=N | inactive: > 100 µM |
| COC(=O)c1c(O)ccc2c1c1c(n2Cc2ccc(OC)cc2)C(=O)c2ccccc2C1=O | inactive: 40.5 µM |
| O=C1c2c(ccc3c2CCCC3)CC1Cc1ccc2c(c1)CCCC2 (centres undefined) | inactive: > 100 µM |
| O=C(Cn1cc(-c2ccccc2)nn1)NC1CCCCC1 | inactive: > 100 µM |

| SMILES | GI50 |
| --- | --- |
| CCN(CC)CCC1CCCCN1CC(=O)N1c2ccccc2NC(=O)c2ccccc21 (centres undefined) | inactive: > 100 µM |
| Clc1cccc(Cl)c1C(Nc1nncs1)Nc1nncs1 | inactive: 27.2 µM |
| O=C1c2ccccc2-c2c1c1ccccc1c(=O)n2Cc1ccccc1 | inactive: 71.4 µM |
| C/C(=C\[Si](C)(C)c1ccco1)C(C)(O)[C@H](C)O (some centres undefined) | inactive: > 100 µM |
| Cc1nc2c(n1Cc1ccc(F)cc1)C(=O)c1ccccc1C2=O | inactive: 40.5 µM |
| COc1ccc2c(c1)CC[C@@H]1C2CC[C@]2(C)C(=O)NC(=O)CC12 (some centres undefined) | inactive: > 100 µM |
| COc1ccc(C2c3cc4c(cc3OC(NNc3ccccc3)C2C)OCO4)cc1 (centres undefined) | inactive: 6.78 µM |
| Cn1cc(C(=O)C[n+]2ccccc2)c2ccccc21 | inactive: > 100 µM |
| C[C@]12[C@@H]3CC[C@H]1[C@@H](O)C(=O)N2CC3 | inactive: > 100 µM |
| FC(F)(F)c1nc(-c2ccccc2)oc1Sc1nnc(Sc2oc(-c3ccccc3)nc2C(F)(F)F)s1 | inactive: > 100 µM |
| COc1ccc(C2=C(OC(=O)N(C)C)c3cccn3-c3cc(C(F)(F)F)ccc3S2)cc1 | inactive: > 10 µM |
| CC12CCc3ccccc3C1=NNC(=O)C2 (centres undefined) | inactive: > 100 µM |
| CCN(CC)CCCOC(=O)/C=C/c1c(C)[nH]c(=O)[nH]c1=O | inactive: > 625 µM |
| O=c1c2cc([N+](=O)[O-])ccc2oc2nc3n(c(=O)c12)CCCS3 | inactive: > 100 µM |
| O=c1[nH]nc(-c2ccccc2)n1/N=C/c1cccnc1 | inactive: > 100 µM |
| COc1ccccc1C1SCC(=O)N1c1ccc(-c2ccc(-n3c(-c4ccccc4)nc4ccccc4c3=O)cc2)cc1 (centres undefined) | inactive: > 100 µM |
| Cn1c(=S)[nH]c2sc3c(c2c1=O)CCSC3 | inactive: 26.2 µM |
| NC1=C(N2CCCCC2)C(=O)NC2=N/C(=C\c3ccccc3)C(=O)N21 | inactive: > 100 µM |
| Cn1c(=O)ccc2cc(C(=O)c3ccccc3)ccc21 | inactive: 63.5 µM |
| CCCCCCCCCCCCCCCCOP(=O)([O-])OCC[N+](C)(C)C [MILTEFOSINE] | inactive: 25.2 µM |
| COC(=O)CCC1(O)C=CC(=O)C=C1 | inactive: > 100 µM |
| C/C(=N\NS(=O)(=O)c1ccc(C)cc1)C(CN1CCCCC1)C(c1ccccc1)c1c(O)c2ccccc2oc1=O (centres undefined) | inactive: > 100 µM |
| COc1cc2nc(Nc3cccc(Br)c3)nc(Nc3cccc(Br)c3)c2cc1OC | inactive: 21.6 µM |
| Oc1cc(-c2ccccn2)nc2cc(F)ccc12 | inactive: > 100 µM |

| SMILES | GI50 |
| --- | --- |
| COc1cccc(C23CCCC(C2)NCC3Br)c1OC (centres undefined) | inactive: > 100 µM |
| Cc1cc(=O)n2nc(CSc3nnc(S)s3)sc2n1 | inactive: > 100 µM |
| O=[N+]([O-])c1cccc2nc3ccccc3c(NCCc3cccc[n+]3[O-])c12 | active: < 0.0448 µM |
| C[C@]12CCC3[C@@H](CC[C@@H]4c5nonc5CC[C@]34C)C1CCC(=O)N2 (some centres undefined) | inactive: > 100 µM |
| CC(C)CC(=O)N1CCN(C(=O)CC(C)C)c2ccccc21 | inactive: > 100 µM |
| CC(=O)O[C@H]1C[C@H]2C(=S)Nc3ccccc3C(=S)N2C1 | inactive: > 100 µM |
| O=C(CC1C(=O)Nc2ccccc2[S+]1[O-])Nc1ccccc1 (centres undefined) | inactive: > 100 µM |
| Cc1ccc(/C=C/C(=O)c2ccc(Cl)c(Cl)c2)cc1 | inactive: > 100 µM |
| N#Cc1c(-c2ccc(Cl)cc2)c2c(n(C3OC(CO)C(O)C(O)C3O)c1=S)CCCC2 (centres undefined) | inactive: 47.3 µM |
| COc1ccc(C2SC(=N)Nc3c2c(C)nn3C(=O)c2ccccc2O)cc1OC (centres undefined) | inactive: > 10 µM |
| c1ccc(C2=NN=C3C(c4ccccc4)=Nc4ccccc4N3C2)cc1 | inactive: 10.9 µM |
| Cc1cc(C)c(C(=O)c2nnc3ccccc3c2N)c(C)c1 | inactive: 18.3 µM |
| Clc1c(Cl)c(Cl)c2nn(C3CCCO3)nc2c1Cl (centres undefined) | inactive: > 100 µM |
| O=C1/C(=C\c2ccc(Cl)cc2Cl)Sc2scc(-c3ccc(O)c(O)c3)[n+]21 | inactive: 17.7 µM |
| CC1(C)CC2=C(Sc3ccccc3N2)C(=O)C1C(=O)C(=O)Nc1cccc([N+](=O)[O-])c1 (centres undefined) | inactive: > 100 µM |
| COc1ccc(Br)c(C(=O)N2CCc3ccccc32)c1N | inactive: 95.5 µM |
| O=C1NC2(CCCCC2)N=C2C(Cl)CCCC12Cl (centres undefined) | inactive: > 100 µM |
| CC(=O)Nc1ccc(-c2nnc(SCC(=O)Nc3ccccc3[N+](=O)[O-])o2)cc1 | inactive: > 100 µM |
| CCC1(CC)SCc2nc3ccccc3n21 | inactive: 71.6 µM |
| COC1(OC)c2occc2C(=N)c2ccc(=O)oc21 | inactive: > 100 µM |
| COc1cc(O)c2c(c1)C(=O)C1=C(C2=O)C(O)C[C@@](C)(O)C1 (some centres undefined) | inactive: 2.08 µM |
| O=C1CCCCC1C1(O)C(=O)Nc2cc(F)ccc21 (centres undefined) | inactive: > 100 µM |

Source: ChEMBL document CHEMBL1201862, “PubChem BioAssay data set” (2004)
